Reference: PubChem BioAssay AID1508624 (National Center for Advancing Translational Sciences (NCATS), 2021)
Hit rate of the full screen: of about 48,000 compounds, about 120 (0.25%) were called active. Another 4% or so got no clear call; they are omitted. The call rests on the fitted dose curve; in most records, active means well fitted activation curve with a large enough effect; inconclusive means small, poorly fitted or top-dose-only effect, or another doubt; inactive means no such curve, though single readings can be large or run the other way. The list shows a part of the results, in another mix than the full data. The source gives no active or inactive call for entries shown without one.

Assay: Primary qHTS for Identification of Small Molecule Activators of Huntingtin-Antisense Promoter Activity; further: nearly all actives have a fitted effect of over 55% in size
Conditions: HEK293 HTT-AS promoter firefly luciferase reporter, 24 h; activity change, positive = activation: at 57.5 µM (top of the series), percent change from vehicle, -100% = no light
Description: Assay Provider: Russell L. Margolis M.D.
Department Neurology, Johns Hopkins University School of Medicine, Baltimore, MD
Huntington's Disease (HD) is a neurodegenerative disorder caused by a CAG repeat expansion in exon 1 of huntingtin (HTT). While there are currently no disease-modifying treatments for HD, recent efforts have focused on development of nucleotide-based therapeutics to lower HTT expression. As an alternative to siRNA or oligonucleotide methods, we hypothesized that suppression of HTT expression might be accomplished by small molecules that either (1) directly decrease HTT expression by suppressing HTT promoter activity or (2) indirectly decrease HTT expression by increasing the promoter activity of HTT-AS, the gene antisense to HTT that appears to inhibit expression of HTT.
We developed and employed a high throughput screen for modifiers of HTT and HTT-AS promoter activity using luminescent reporter HEK293 cells; of the 52,041 compounds tested, we identified 898 replicable hits. We used a rigorous stepwise approach to assess compound toxicity and the capacity of the compounds to specifically lower huntingtin protein in 5 different cell lines, including HEK293 cells, HD lymphoblastoid cells, mouse primary neurons, HD iPSCs differentiated into cortical-like neurons, and HD hESCs. We found no compounds which were able to lower huntingtin without lowering cell viability in all assays, though the potential efficacy of a few compounds at non-toxic doses could not be excluded.
SEQUENCE No. (1, 2, 3, etc.); […] (e.g., Cells, Incubation, Reagent, etc.); VALUE and DESCRIPTION.
1; Reagent; 4 uL; 2,500 Hek293 luciferase reporter cells per wells
3; Compound; 23 nL; Control inhibitor / compound library
5; Reagent; 2.5 uL; Firefly Luc reagent; Dual-Glo Luciferase Reporter Assay System (Promega)
6; Time; 10 min; room temperature incubation
7; Detection; Luminescence; FLuc
NOTES (numbers refer to sequence above)
1; High-throughput screening, measuring luminescence from a Hek293 luciferase reporter, was performed in 1,536 well white-walled tissue-culture treated plates. 2,500 cells were plated in 4 µL of Opti-MEM per well using a Multidrop Combi Reagent Dispenser (ThermoFisher).
2; Assay plates were cultured for 24 hours.
3; Control inhibitor (PTC124; final concentration of 50 uM) and compound library (at final concentrations of 460 nM - 57.5 uM) were added to the assay plate using the Kalypsis Pintool Robotic System equipped with 1536 pinheads.
4; Cells were then incubated for 24 hours at 37 degrees C prior to luminescence measurements.
5; In all cases, luminescence was measured using the Dual-Glo Luciferase Reporter Assay System (Promega) following the manufacturer's instructions.
6; Room temperature incubation.
7; Luminescence signal was obtained using the PerkinElmer ViewLux plate reader. Results were normalized to vehicle control (0% activity) and zero RLU (-100% activity).
Potency means the concentration at half of the fitted maximal effect.

Structure (SMILES) | activity change, positive = activation | Potency
O=C(Nc1cccc(Cl)c1)C1CCCN(c2ncnc3c2nc2n3CCCCC2)C1 (stereo not drawn) | inactive: -20.9% | –
CC1Cc2cc(S(=O)(=O)CCC(=O)NCc3ccccc3Cl)ccc2N1C(=O)C1CC1 (stereo not drawn) | -14.6% | –
COC(=O)c1ccccc1NC(=O)CN1C(=O)COc2ccc(Cl)cc21 | -8.95% | –
Cc1ccc2nc(-c3ccc(Cl)s3)c(Nc3ccc4c(c3)OCCO4)n2c1 | – | active: 4.47 µM
CC(=O)N1CCCc2cc(S(=O)(=O)N3CCC(C(=O)Nc4ccc(C)cc4Cl)CC3)ccc21 | inactive: -30.5% | –
CCOC(=O)c1c(NC(=O)c2cc(-c3ccc(OC)c(OC)c3)on2)sc(C)c1C | -10.1% | –
Cc1c(C)c2cc3c(c(C)c2oc1=O)OCN(CCc1ccccc1)C3 | 10.6% | –
COc1cccc(CNS(=O)(=O)c2ccc3c(c2)CC(C)N3C(=O)C2CCC2)c1 (stereo not drawn) | -48.7% | –
Cc1ccccc1C(=O)Nc1cc2c(cc1N1CCCCC1)n(C)c(=O)n2C | -20.7% | –
COc1ccc2c(C)c(CCC(=O)NCc3ccc(C)cc3)c(=O)oc2c1 | -8.95% | –
COc1cc2c(Oc3ccc(-c4cnc(Nc5ccc(F)cc5)n(C)c4=O)cc3F)ccnc2cc1OCCCN1CCOCC1 | inactive: -35.8% | –
COC(=O)CN1C(=O)CSc2ccc(S(=O)(=O)Nc3cccc(C)c3)cc21 | -24.4% | –
Cn1cnc2c(=O)oc3ccc(S(=O)(=O)N4CCN(c5cccc(C(F)(F)F)c5)CC4)cc3c21 | -8.91% | –
Cc1ccc(-c2nc3c(c(SCC(=O)N(C)c4ccccc4)n2)Cc2c(CO)cnc(C)c2O3)cc1 | inactive: -27.9% | –
O=C1C(=O)N(C2CCN(S(=O)(=O)c3ccccc3)CC2)CCN1Cc1ccccc1 | 0.994% | –
Cc1ccc(F)cc1NC(=O)CCc1c(C)nn(-c2ccc(N3CCCCC3)nn2)c1C | 38.7% | –
Cc1ccc(S(=O)(=O)Nc2ccc(-c3ccc(N4CCCCCC4)nn3)cc2)cc1C | -5.85% | –
CC1CCN(c2ccc(-c3cccc(NS(=O)(=O)c4ccc(Cl)s4)c3)nn2)CC1 | 72.8% | –
CCOC(=O)c1c(-c2ccccc2)oc2ccc(NS(=O)(=O)c3ccccc3)cc12 | -14.6% | –
Cc1ccc(NC(=O)CCc2c(C)nn(-c3ccc(N4CCCCC4)nn3)c2C)cc1F | 35.3% | –
COC(=O)c1c(C)oc2c1cc(NS(=O)(=O)c1c(C)cc(C)cc1C)c1ccccc12 | -32.9% | –
COc1ccc(CCNC(=O)Cc2c(C)c3ccc(O)c(C)c3oc2=O)cc1OC | -20.1% | –
COc1cccc(-c2cc(C(=O)Nc3ccc(OC)cc3OC)no2)c1 | -3.2% | –
CCc1nn(CC(=O)NCC(C)c2ccccc2)c(=O)c2cc3c(OC)cccc3n12 (stereo not drawn) | 1.78% | –

Structure (SMILES) | activity change, positive = activation | Potency
Cc1ccc2nc(N3CCN(c4ccc(F)cc4)CC3)c3nnnn3c2c1 | -3.87% | –
COc1cc(C)ccc1OCCCn1c(-c2ccc(Cl)cc2)nc2ccccc2c1=O | 4.95% | –
CCCCC(=O)Nc1cccc(-c2nc3ncccc3o2)c1C | 32.5% | –
CCOC(=O)c1ccc(N2CCN(c3ccccc3F)CC2)c(NC(=O)Nc2ccc(Cl)c(Cl)c2)c1 | -20.2% | –
Cc1oc2ccc(O)c(CN3CCN(Cc4ccccc4)CC3)c2c1C(=O)Nc1ccccc1 | -19% | –
CC(C)OCCCNc1sc(S(=O)(=O)c2ccccc2)nc1S(=O)(=O)c1ccc(Cl)cc1 | inactive: -10.5% | –
CCOc1ccc(NC(=O)CSc2ncn[nH]2)cc1 | -0.033% | –
Cc1cc(S(=O)(=O)Nc2cc3c(cc2NCc2ccccc2)n(C)c(=O)n3C)ccc1F | 35% | –
Cc1ccc2nc(N3CCN(c4cccc(C(F)(F)F)c4)CC3)c3nnnn3c2c1 | 1.38% | –
COc1cc2c(cc1OC)C(c1ccc(F)cc1)N(c1cccc(C#N)c1)C(=O)C2 (stereo not drawn) | -16.4% | –
Cc1nn(Cc2ccccc2Cl)c(C)c1NC(=O)c1cc(C(C)C)on1 | -17.7% | –
COc1cccc(CNC(=O)C2CCCCN2S(=O)(=O)c2ccc(F)cc2)c1 (stereo not drawn) | -5.27% | –
COc1ccccc1C1Nc2ccccc2-n2c(-c3ccccc3)c3c(=O)n(C)c(=O)n(C)c3c21 (stereo not drawn) | -15.6% | –
O=S(=O)(Nc1ccc(-c2ccc(N3CCCCCC3)nn2)cc1)c1cccc(C(F)(F)F)c1 | 3.67% | –
N#Cc1ccc(NC(=O)c2cc(-c3cccc(Cl)c3)on2)cc1 | 1.78% | –
COc1cc2oc(=O)c(CC(=O)NCCc3ccccc3F)c(C)c2cc1OC | -1.16% | –
CCc1nnc2c3ccccc3nc(Nc3ccc(F)c(Cl)c3)n12 | 0.37% | –
COc1ccc(CCNS(=O)(=O)c2ccc(F)c(C(=O)Nc3ccc(Cl)cc3)c2)cc1OC | inactive: -42.2% | –
Cc1cccc(C)c1NC(=O)CCS(=O)(=O)c1ccc2c(c1)CC(C)N2C(=O)C1CC1 (stereo not drawn) | -29.7% | –
CCCOc1ccc(NC(=O)CC2C(=O)N(c3cccc(C)c3)C(=O)N2CCc2ccncc2)cc1 (stereo not drawn) | -13.2% | –
CCOc1ccc(NC(=O)c2ncn(-c3ccccc3)n2)cc1 | – | active: 8.91 µM
COC(=O)c1cc2c(cc1NC(=O)c1c(C)nn(-c3ccc(C)cc3)c1-n1cccc1)OCO2 | 3.46% | –
CCOC(=O)c1ccc(N2CCN(c3ccc(F)cc3)CC2)c(NC(=O)Nc2cccc(OC)c2)c1 | -32.3% | –
C=C(C)Cn1c(SCC(=O)Nc2cc(C)ccc2C)nc2sc3c(c2c1=O)CCCC3 | 3.56% | –
